Source: the supplement of paper PMC10126150
Values marked as one replicate rest on one cluster of the flow cell; about a third of the high ones do not repeat.

Each sequence was assayed on ATP (assay: switch fluorescence ratio, 500 uM ATP over buffer (Cy3 cluster intensity, sum of 5 cycles each) (fold (ratio)); higher = stronger signal-on switching upon ATP binding; sequences stand for … in TCGTCGGCAGCGTCAGATGTGTATAAGAGACAGTTTTTTTTTTTTTTTTTTTTTTTTT…TC). Details: aptamer strand: ATP DNA aptamer (quencher-CACCTGGGGGAGTATTGCGGAGGAAGG + anchor), 100 nM annealed; ATP concentration: 500 uM; one replicate.
Method in brief: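 Exposure to 500 uM ATP lasted 15 min at 22 °C before imaging, and a selection-buffer image was taken beforehand, for Cy3-labelled switching-strand clusters on a modified Illumina MiSeq flow-cell annealed to 100 nM quencher-labelled ATP aptamer. Five buffer/ATP cycles were run with NaOH stripping and re-annealing between them. The fluorescence ratio per cluster is summed target-cycle over summed buffer-cycle Cy3 intensity, averaged per switch-domain sequence. Clusters outside 100-1000 RFU were excluded.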

Sequence	switch fluorescence ratio
TCTCTGTGT	1.05
AGGGCGTGAG	1
CCAATCTCGC	1.25
CAATTGAGAA	0.971
AGTCGCAATA	2.5
ACAGCGATTA	1.1
GGATCCAAGG	0.994
AGAGATATCA	1.03
CATATAAAAT	1.01
TGGAAACTTG	1.06
ATCAAGGGAT	0.993
TCAATGCGGC	0.965
GAGACGGTTT	0.998
CACAAATTAG	0.982
AGGCGCTGTC	1.06
CGTGGGGACC	0.959
ACGCAGCCCG	1.09
GACAGGATGT	0.963
TATTCAGGG	1.01
GACGTAGGAG	1.03
TGGGTAAGCC	1
GGTATGGGG	0.962
CATTATAAA	0.938
CAGTGAGGCA	0.985
ATTTAGATAA	1.04
TATATGTTCC	1.02

Sequence	switch fluorescence ratio
CGGAGCCTTC	1.76
GTGGGTTAC	0.999
AAACTTATTT	1.04
CTTGAGGATG	1.01
ACGGGAGCTA	1.08
GGGAGGGTCG	1.09
TCATGAAACG	0.999
CTGGAACTGG	0.985
TGTTGATTGC	1.03
AGTTGTTAG	1.02
GCCGGCCTGG	0.997
TTCTACGGTT	1.05
TTGAGTAGCG	0.978
TTCTCATGGC	1.04
CAATCCGTTA	1.15
AGAATGGGTA	0.989
GGGGGACACA	0.958
ATTCCGGTA	1.25
TAATAACAG	1.02
GTTGTCCCGA	1.04
CTTAGTTAAC	0.98
TTCGTTCACT	0.992
AGTGTGACC	0.988
GTGAAGGCAA	1.36
ATTAAAAACG	1.04
GACGGTTTCA	0.979

Sequence	switch fluorescence ratio
ATCATGGCGT	1.03
TTATAGATCA	1.03
AACGTATGAC	0.972
ATACCTGCCG	1.03
CGTACGTAAG	1.03
AGTTATAAAT	0.989
AAACGTGCTT	1.03
ATGGTGAA	0.98
ACACGTACGC	1.66
AGGCACAGGG	1.06
CGGCTAGGAT	1.02
TTGGTATCTG	0.935
ATTGTGTAGC	1.19
CGTCTGCCAA	1.54
GGATCGGAAA	1.03
CCACATGAAA	1.05
CGGTACGCGG	0.945
CCTTTTGCCT	1.05
GATCGCCCCA	0.982
GGTTCAGGG	0.977
CACGACCCTG	0.993
TCCATATGAT	1
AGTCAGCTAT	1.04
CCTGTGTTTC	1.06
CTGACATAA	1.19
CATCAAGTGG	0.988

Sequence	switch fluorescence ratio
GACTATTATA	1.03
CAATGGACGG	1.02
AGTAATTAG	0.969
TGATTATATA	1.01
TTGCGCCGGA	0.96
TCGGGCATTC	1.44
AGTATCCAGG	1.08
GGAGCCCTAA	1.04
AATGTATTA	1.1
AACAGATACC	1.06
GTTGTATAAC	1.05
ATACTCTAGC	1.08
TCCCCGGGGA	1.29
CATCAGGATT	0.956
ACGGGTAAGA	1.05
AATGTACAGG	1.04
TATGTGTATG	1.02
ACGGAGCGGA	1.03
GTTCCAGCAG	1.08
CATAATCCCG	0.977
TTTTGTTA	0.988
TTCATAAGGT	1.01
TTTGGTCGG	1.01
ACATGTTTAA	1.03
CGTCCGTTCT	1.05
GACTAGACTC	1.05

Sequence	switch fluorescence ratio
GATAGATTAA	1.03
AAAGCTTTCC	1.72
GCTAGTCATC	1.02
TTAGGATCAC	1.08
CGCCAAATC	1.41
GTTTCGTGTG	1
AACTGTTCGC	0.973
ACTGTTTGAC	0.98
TCCCAGGCGT	1.03
AGCCGGCTA	0.996
TGTAGTTTAT	1.02
ATCAGACCA	0.964
CGTAGCTGGT	1.06
AGTTATTTTA	1.02
GCGTAATCTC	2.15
CATGGGATTG	0.966
GCAGCCCAGG	1.1
TTAGTCCGGC	1.25
AGAGTGGATT	0.985
CGAATGTGTC	1.04
TTGTCCTAGA	0.974
AGAGTGCGAG	0.996
TTCGCGGGAT	1.09
CATCTTACCG	1.01
AGCTCAATCT	0.994
AAATCTGTAT	1.01

Sequence	switch fluorescence ratio
GGGGGTTG	1.01
GTAGGCGCTC	1.01
GGAGTGACGT	1.01
AGGCCTGGTC	1.02
TTCCTCCCTA	3.18
GCGGTCCCAC	1.04
GTCCTGGTTT	1.06
GACGGCTTTG	1.03
GGTTTGAAAG	0.99
GGAGTTTTGG	0.993
TGCCGTGTTT	1.03
TGATTACTAA	1.06
TAGGTCTGTA	1.03
GGGGAGTCAG	0.983
TTACCGAGGG	1.26
TTTAGGACTA	1.02
AGATCGCGT	1.02
GATTGCTAGC	0.998
AGCACAAGGG	1.01
GGCTGCCTGT	0.938
AAGTCAAAAC	1.19
CATGTACGG	1.08
TATGAATGGC	0.957
GCGTCCAGCA	1.01
TTTTGGTGTA	1.02
GTTTCCATTC	1.03

Sequence	switch fluorescence ratio
GACATGCAAC	1.2
GACTGTACGC	1.6
CCCTTTACAA	1.05
TCGGTACTTT	0.993
GTTTAGAGAA	0.967
TTAGGACGG	1.07
ACCTTTCTTT	1.01
ATACTGGGTG	1.18
ATATTTTTCC	1.09
TTTAGTACCA	1
AAGTATGAG	0.999
AATGGACCAT	0.992
TTGTGTCGTG	0.948
TTTATCAAGT	0.945
TCTCATTGTA	0.991
GCGGAAGCCC	1.04
GACATCTAAT	1.05
GAGGCGTTCG	0.929
TATGCGGCAA	1.26
TAGAGTCCTG	0.974
TTGCTGATTA	0.984
CGGAAGAAAC	0.983
TTCAATGT	0.951
GCGTATTCGT	1
GACGCCGCTG	1.26
CAGAATAATT	0.996

Sequence	switch fluorescence ratio
AGTGGTAAAA	1.01
TTCAAAGCCT	1.09
TTTTCCGT	1.01
GATGTAGCTG	1.03
GTGGTAGCTC	1.02
ATAATTCGGA	0.976
TGCTCTACAT	1.03
AAAAAGGAGC	1.02
TACCTACGGC	1.43
CACTATATTA	1.09
ACCGGAAGGG	1.02
GGTTCATGAA	1.08
GTTTGCTAAT	0.987
GGTATACCAC	1
ACCTCTGTAA	1.75
AAAGAACGT	1
CGTGTGTGAC	1.06
GTGTTTAAGG	1.01
AAATTAAAG	0.984
